Data reported in the supplement of paper PMC3724861.
The other results are listed elsewhere or left out.

tested on: T1, Caupolican (Caup) homeodomain DNA-binding domain; assay: PBM E-score (8-mer, recovered from the published 9-mer minima) (E-score (dimensionless, -0.5 to 0.5)); Drosophila protein; higher = stronger relative binding preference, active = 0.31 or more
T1 sequence: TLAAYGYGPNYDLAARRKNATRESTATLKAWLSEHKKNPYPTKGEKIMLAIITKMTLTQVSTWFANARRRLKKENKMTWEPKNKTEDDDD
Summary of the method: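 An enrichment score, with higher meaning stronger, expresses relative binding preference for each short DNA word. The protein used was Caup's homeodomain DNA-binding domain (residues 214-303), produced by in vitro transcription and translation and tested at 100 nM on custom-designed protein binding microarrays. The 8-mer values were recovered from published 9-mer scores, each equal to the lower of its two constituent 8-mer scores.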

Sequence	PBM E-score
GAACATAC	active: 0.331
GGCAACAC	inactive: 0.072
AGGCAGTA	inactive: -0.0224
TAACGAAA	inactive: 0.157
GTATCTAA	inactive: 0.188
GCGGAAAC	inactive: -0.0869
ATACCATC	inactive: 0.165
ATCTGATG	inactive: 0.072
ATAATCGG	inactive: 0.0788
CGTCCCCC	inactive: -0.323
ACGGTGTA	≥ 0.257
AGTCGTTA	inactive: 0.0838
CTAGTTGC	inactive: 0.0796
AAGAATAT	inactive: 0.0488
GCGCACAA	inactive: 0.0432
ACTCCTCG	inactive: -0.0284
ACAGTGCG	inactive: -0.105
GAGCGATA	inactive: -0.00508
ACAATTAG	inactive: 0.13
CCCGCACC	inactive: -0.178
GATCATCC	inactive: -0.0237
ATGTTCCG	inactive: 0.255
AACCGGAT	≥ 0.084
CGGACGGA	inactive: -0.171
GGGGTTAA	inactive: -0.11

Sequence	PBM E-score
AGAGTTTA	inactive: 0.0386
CACGTCCG	inactive: -0.0777
AGAGACAT	inactive: 0.203
AGTGACGA	inactive: 0.0465
GAGTGTAC	inactive: 0.121
GTAGCACA	inactive: 0.0337
AAACTGGT	inactive: 0.0233
GACACTGA	inactive: 0.109
CCTTGAAC	inactive: -0.0497
ACCAATCC	inactive: -0.0418
ACAAGGCC	inactive: 0.188
CTGATTTA	inactive: 0.138
CTTATACA	inactive: 0.11
AGCTGGAT	inactive: 0.028
GGTAAGAC	inactive: -0.114
CTCAAATA	inactive: 0.0843
AGAAGTTA	inactive: 0.0385
AGGCCCGG	inactive: -0.28
CCCCCGAG	inactive: -0.352
AGCGTACA	inactive: 0.198
ATCATGGG	inactive: -0.0312
ACCAGCGT	≥ 0.0151
CCCAATCG	inactive: -0.166
GATGATAA	inactive: 0.0766
AACTGAGA	≥ 0.0727

Sequence	PBM E-score
ATTCAAGG	inactive: -0.00866
GGGCAACA	inactive: -0.045
CACAAGCA	inactive: 0.15
AAAAGGTG	inactive: 0.00768
ATACTAGG	inactive: 0.0747
ATCACGCG	inactive: -0.0103
AAGGGCCC	inactive: -0.216
CGCAACTC	inactive: -0.0116
GCGAGTCA	inactive: -0.0896
TAGCACCA	≥ -0.00149
ACCCAGGT	inactive: -0.155
AACAAAAA	inactive: 0.141
AGGTTAGG	inactive: -0.124
ACGGAAAT	≥ 0.119
GAACGCAA	inactive: 0.0319
ATCGTCGG	inactive: -0.0995
ACTCGTTC	inactive: 0.123
ACTGCGTC	inactive: -0.0966
CTTGCGAA	inactive: -0.0441
ATGCCGCC	inactive: -0.143
CTTGCATC	inactive: -0.0348
CCAGCGAC	inactive: -0.00733
AAAAGACC	inactive: -0.105
CATGCAAC	inactive: 0.179
AGTATAGG	inactive: -0.0204

Sequence	PBM E-score
CTAATAAC	inactive: 0.167
GTGCGTGA	inactive: 0.0161
AATGCGTA	inactive: 0.0947
ACTCTTTA	inactive: 0.0106
ACATCCTA	inactive: 0.253
CAAGGCTA	inactive: -0.079
CTCGCGCC	inactive: -0.248
AGCGACTA	≥ 0.0539
AAAGGTCC	inactive: -0.11
AGAGAGTG	inactive: -0.0311
ACCTTGGA	inactive: -0.00716
GCTTTTTA	inactive: -0.0388
ACTTATGA	inactive: 0.0775
CTGGATAA	inactive: -0.0558
ACGTGAGA	inactive: 0.00478
AGGCCCCC	inactive: -0.398
TAAGTCGA	inactive: 0.057
GTTCGATA	inactive: 0.093
AATCCCCG	inactive: -0.052
ATCCGGGC	inactive: -0.181
AATTAATT	inactive: 0.0753
AGGACGTG	inactive: -0.0199
GTTCTCGA	inactive: 0.0527
CTAGTGTC	inactive: 0.0923
AGTGACTC	inactive: -0.0228

Sequence	PBM E-score
CATACGCC	inactive: -0.0138
ACCACGCA	≥ 0.0198
AGTTCTAA	inactive: 0.0219
CCCCAATA	inactive: -0.179
AAACCATC	inactive: 0.0321
AACCGACG	inactive: -0.0763
CCGGAAGA	inactive: -0.11
AGTAAGGC	inactive: -0.0291
GAGTTGGC	inactive: -0.126
GTTCCAGA	inactive: -0.0409
ATTCAATC	inactive: 0.062
GGGCCAAA	inactive: -0.135
CGTTGATA	inactive: 0.0601
GCACATCA	inactive: 0.0977
AGGAGATG	inactive: 0.0724
TAGACTAA	inactive: -0.0471
CACTGTGG	inactive: -0.0303
ACGTACAG	inactive: 0.103
ACGACGCG	inactive: 0.0049
GCAGCAGC	inactive: -0.0927
ATGGTTCG	inactive: -0.0328
GGTCAATA	inactive: 0.154
GAAGGTCC	inactive: -0.184
ACACCTGG	inactive: 0.0205
ACGTTACC	inactive: 0.0329

Sequence	PBM E-score
TGGGTTAA	inactive: 0.0892
GTGTCACA	inactive: 0.29
CCAGGGAA	inactive: -0.187
CGATGGGA	inactive: -0.123
AGATAACT	inactive: 0.0653
ATTTGCCA	inactive: -0.0475
CATATGCC	inactive: -0.0694
TCTCACCA	inactive: -0.0261
GCGGATCA	inactive: -0.0749
ATGGTGTA	≥ 0.292
GGAGCACA	inactive: -0.0222
AGCGCTCC	inactive: -0.211
AAAATTTG	inactive: 0.0701
GGTGCGTA	inactive: -0.118
CAAAAATC	inactive: 0.0293
ATGCTAAA	inactive: 0.0404
AGCGTAAA	inactive: -0.00289
AACACGCG	inactive: 0.269
ACCGCAAT	inactive: -0.0384
CATCTTGC	inactive: 0.0649
CCACAGCA	inactive: 0.0235
ATGAAGTG	inactive: -0.0199
GTAACCGA	inactive: -0.00016
ATCAGTGC	inactive: 0.0637
CTGAGAGA	inactive: -0.117

Sequence	PBM E-score
GCCATGAC	inactive: -0.0484
GTAATTCA	inactive: 0.174
ATGTACGA	active: 0.395
CAGGAACG	inactive: 0.00533
AAAAGCGT	inactive: -0.0853
AAGCTATC	inactive: 0.0157
ACCTCCAG	inactive: -0.111
CGACAGGC	inactive: -0.0503
ACGGGTAG	inactive: -0.0971
ACAGTGCA	≥ 0.0844
CACGGATA	inactive: 0.128
ACTTCATA	inactive: 0.0382
AATAGCCG	inactive: -0.0448
GCTATTGA	inactive: 0.087
CATTGTTC	inactive: 0.184
AAAGTGCC	inactive: -0.0124
CAATGACC	inactive: 0.065
GCGTGATA	inactive: 0.03
CTGAGGTA	inactive: 0.00332
CACTAAGG	inactive: -0.0674
ACACATAT	active: 0.323
AAACCGAA	inactive: 0.0763
CCAAATTA	inactive: 0.122
CCCTAACG	inactive: -0.192
CCACTTTA	inactive: -0.0164

Sequence	PBM E-score
GCGTGTTA	inactive: 0.284
AACATCCG	inactive: 0.252
AACTTTGC	inactive: -0.0381
CGAGTTTA	inactive: -0.0356
GTTGCTTA	inactive: 0.145
ATGCCGGG	inactive: -0.193
ATGAGCAG	inactive: 0.00627
ACTTTGCG	inactive: -0.0437
ACCATCCG	inactive: -0.0224
TCAGCTGA	inactive: -0.00984
ACCCATCG	inactive: -0.0141
CCTACACA	inactive: 0.157
AAAAGAGA	inactive: -0.0242
AATTATAC	inactive: 0.202
AGACAACG	inactive: 0.231
CGGATGAG	inactive: -0.0715
ACGGTAGA	inactive: -0.0784
CCGAGGAA	inactive: -0.109
ACGTGTCT	inactive: 0.244
CATGTAAG	active: 0.395
CTAAGGCC	inactive: -0.194
AATCCACT	≥ 0.084
GCCTCGCA	inactive: -0.166
AGAAGCAA	inactive: 0.0893
AACCGCTC	inactive: -0.0871

Sequence	PBM E-score
AGAGATCG	inactive: -0.0426
CACAAGTA	inactive: 0.205
CCCAACCG	inactive: -0.162
AGGATTGG	inactive: -0.0154
ACACACTG	inactive: 0.151
CGACTTCA	inactive: -0.0231
ACAATACG	inactive: 0.0886
ACTTTTGA	inactive: 0.0445
ACCATCGC	inactive: -0.0978
CACTTATA	inactive: 0.051
TCTTAGAA	inactive: -0.0146
GGAGAGTA	inactive: -0.106
CTGCCAGC	inactive: -0.207
CCAGAGTA	inactive: -0.0813
ACTGCAAG	inactive: 0.0565
AAGTAGGT	inactive: 0.0353
ATGCGGGA	inactive: -0.0659
CTCCTATC	inactive: -0.0311
ATTTTAAA	inactive: 0.0627
GTGTAAAA	inactive: 0.266
AGTGCTTA	inactive: 0.0428
GTTGGGCA	≥ 0.0223
CTTGCCAC	inactive: -0.0874
AGTGGGCC	inactive: -0.141
